# Reference: the supplement of paper PMC8728848
# The list shows a part of the results.
# B1: a L Fucosidase (Streptosporangium roseum), D2B1P1_STRRD (protein)
# chain: MRRKLLLVPAVGLLVIGSIFATQPVASADTPPVYEPTVESLNSHPVPQWFNDDKFGIFIHWGAYSVPAWGPRGSYAEWYGNYMNAGGSATNAHHKATYGQDFNYDAFLQQWKAEKFDPADWVKLFKDAGAKYFVLTSKHHEGMALWDSKSSGRDSVDLGPGRDLAKELFDAARKDEAKLKAGFYYSLYEWYNPAYTGRPATNPYTGAEIPYTGAPGGGDYVKDYMLPQMRELIDGYDPDIIWCDGQWEKPASYWNTAGVIADYYNKALNSGKEVAVANRCKIQSGNLDSPELDFQTPEYTVKPDIDPVKWESSRGIAHSYGYNQNEPEEDHLTSDQLVDSLVDIVSKNGNLLLDIGPKADGTIPEIQRQRLLDIGAWLKANGEAIYGTTYWNRAEEKGGPDDVRYTAKDATLYATALKWPGEQLTLGADLPVDHSTRITMLGSGARLSWSRDEQGRVVVNTPQEAGKHAYVFKIETPGVRSLLRTSSSLAKEIAPGRTISGELTVTNPGKRHTPATKLSLTVPQGWTATLGAPRVRPLGPGESVKVPISVSAPEGVAPAPYTLGLYQRTGRMGTTTALPLTVNRPNLSLGKPATQKSTGYDAPASRAVDGNTGGDWSAGSTTHTAEPEKQAWWQVDLGASARLDSVDVWNRLDCCADRLKDFWVMASDQPFTTDDLDQARTAPGVTAVHVGEQAGSPSKVKLPEGTRGRYVRIQLASPSNPLSLAEVQVRGSMARPNLSLGKPATQKSTGYDAPASRAVDGNTGGDWSAGSTTHTAEPEKQAWWQVDLGASARLDSVDVWNRLDCCADRLKDFWVMASDQPFTTDDLDQARTAPGVTAVHVGEQAGSPSKVKLPEGTRGRYVRIQLASPSNPLSLAEVQVRLEHHHHHHS
# How the values were obtained:
# Experiment in all cases: glycan array binding signal (z-score within array); higher = stronger binding
# Conditions in all cases: glycan notation: IUPAC condensed, linker removed
# [1] = biological target: Gal(b1-4)GlcNAc(b1-3)Gal(b1-4)GlcNAc(b1-2)Man(a1-3)[Gal(b1-4)GlcNAc(b1-3)Gal(b1-4)GlcNAc(b1-2)Man(a1-6)]Man(b1-4)GlcNAc(b1-4)[Fuc(a1-6)]GlcNAc
# Method in brief: (§1)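 Columns mapping to the same glycan were averaged after glycan names were converted to IUPAC-condensed notation. The data come from 3228 arrays in the Consortium for Functional Glycomics database, limited to those with an available protein sequence. Binding is reported as a within-array Z-score averaged across arrays of one protein sequence and across linkers.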
# [2] = biological target: Gal(b1-4)GlcNAc(b1-3)Gal(b1-4)GlcNAc(b1-2)[Gal(b1-4)GlcNAc(b1-3)Gal(b1-4)GlcNAc(b1-6)]Man(a1-6)[Gal(b1-4)GlcNAc(b1-3)Gal(b1-4)GlcNAc(b1-2)Man(a1-3)]Man(b1-4)GlcNAc(b1-4)GlcNAc
# Method in brief: as §1
# [3] = biological target: Gal(b1-4)GlcNAc(b1-3)Gal(b1-4)GlcNAc(b1-2)[Gal(b1-4)GlcNAc(b1-3)Gal(b1-4)GlcNAc(b1-6)]Man(a1-6)[Gal(b1-4)GlcNAc(b1-3)Gal(b1-4)GlcNAc(b1-2)Man(a1-3)]Man(b1-4)GlcNAc(b1-4)[Fuc(a1-6)]GlcNAc
# Method in brief: as §1
# [4] = biological target: Gal(b1-4)GlcNAc(b1-3)Gal(b1-4)GlcNAc(b1-3)Gal(b1-4)GlcNAc
# Method in brief: as §1
# [5] = biological target: Gal(b1-4)GlcNAc(b1-3)Gal(b1-4)GlcNAc(b1-3)Gal(b1-4)GlcNAc(b1-2)Man(a1-3)[Gal(b1-4)GlcNAc(b1-3)Gal(b1-4)GlcNAc(b1-3)Gal(b1-4)GlcNAc(b1-2)Man(a1-6)]Man(b1-4)GlcNAc(b1-4)GlcNAc
# Method in brief: as §1
# [6] = biological target: Gal(b1-4)GlcNAc(b1-3)Gal(b1-4)GlcNAc(b1-3)Gal(b1-4)GlcNAc(b1-2)Man(a1-3)[Gal(b1-4)GlcNAc(b1-3)Gal(b1-4)GlcNAc(b1-3)Gal(b1-4)GlcNAc(b1-2)Man(a1-6)]Man(b1-4)GlcNAc(b1-4)[Fuc(a1-6)]GlcNAc
# Method in brief: as §1
# [7] = biological target: Gal(b1-4)GlcNAc(b1-3)Gal(b1-4)GlcNAc(b1-3)Gal(b1-4)GlcNAc(b1-2)[Gal(b1-4)GlcNAc(b1-3)Gal(b1-4)GlcNAc(b1-3)Gal(b1-4)GlcNAc(b1-6)]Man(a1-6)[Gal(b1-4)GlcNAc(b1-3)Gal(b1-4)GlcNAc(b1-3)Gal(b1-4)GlcNAc(b1-2)Man(a1-3)]Man(b1-4)GlcNAc(b1-4)[Fuc(a1-6)]GlcNAc
# Method in brief: as §1
# [8] = biological target: Gal(b1-4)GlcNAc(b1-3)Gal(b1-4)GlcNAc(b1-3)Gal(b1-4)GlcNAc(b1-3)Gal(b1-4)GlcNAc(b1-2)Man(a1-3)[Gal(b1-4)GlcNAc(b1-3)Gal(b1-4)GlcNAc(b1-3)Gal(b1-4)GlcNAc(b1-3)Gal(b1-4)GlcNAc(b1-2)Man(a1-6)]Man(b1-4)GlcNAc(b1-4)GlcNAc
# Method in brief: as §1
# [9] = biological target: Gal(b1-4)GlcNAc(b1-3)Gal(b1-4)GlcNAc(b1-3)Gal(b1-4)GlcNAc(b1-3)Gal(b1-4)GlcNAc(b1-2)Man(a1-3)[Gal(b1-4)GlcNAc(b1-3)Gal(b1-4)GlcNAc(b1-3)Gal(b1-4)GlcNAc(b1-3)Gal(b1-4)GlcNAc(b1-2)Man(a1-6)]Man(b1-4)GlcNAc(b1-4)[Fuc(a1-6)]GlcNAc
# Method in brief: as §1
# [10] = biological target: Gal(b1-4)GlcNAc(b1-3)Gal(b1-4)GlcNAc(b1-3)Gal(b1-4)GlcNAc(b1-3)Gal(b1-4)GlcNAc(b1-2)[Gal(b1-4)GlcNAc(b1-3)Gal(b1-4)GlcNAc(b1-3)Gal(b1-4)GlcNAc(b1-3)Gal(b1-4)GlcNAc(b1-6)]Man(a1-6)[Gal(b1-4)GlcNAc(b1-3)Gal(b1-4)GlcNAc(b1-3)Gal(b1-4)GlcNAc(b1-3)Gal(b1-4)GlcNAc(b1-2)Man(a1-3)]Man(b1-4)GlcNAc(b1-4)[Fuc(a1-6)]GlcNAc
# Method in brief: as §1
# [11] = biological target: Gal(b1-4)GlcNAc(b1-3)Gal(b1-4)GlcNAc(b1-3)Gal(b1-4)GlcNAc(b1-3)Gal(b1-4)GlcNAc(b1-3)Gal(b1-4)GlcNAc(b1-2)Man(a1-3)[Gal(b1-4)GlcNAc(b1-3)Gal(b1-4)GlcNAc(b1-3)Gal(b1-4)GlcNAc(b1-3)Gal(b1-4)GlcNAc(b1-3)Gal(b1-4)GlcNAc(b1-2)Man(a1-6)]Man(b1-4)GlcNAc(b1-4)GlcNAc
# Method in brief: as §1
# [12] = biological target: Gal(b1-4)GlcNAc(b1-3)Gal(b1-4)GlcNAc(b1-3)Gal(b1-4)GlcNAc(b1-3)Gal(b1-4)GlcNAc(b1-3)Gal(b1-4)GlcNAc(b1-2)Man(a1-3)[Gal(b1-4)GlcNAc(b1-3)Gal(b1-4)GlcNAc(b1-3)Gal(b1-4)GlcNAc(b1-3)Gal(b1-4)GlcNAc(b1-3)Gal(b1-4)GlcNAc(b1-2)Man(a1-6)]Man(b1-4)GlcNAc(b1-4)[Fuc(a1-6)]GlcNAc
# Method in brief: as §1
# [13] = biological target: Gal(b1-4)GlcNAc(b1-3)Gal(b1-4)GlcNAc(b1-3)Gal(b1-4)GlcNAc(b1-3)Gal(b1-4)GlcNAc(b1-3)Gal(b1-4)GlcNAc(b1-2)[Gal(b1-4)GlcNAc(b1-3)Gal(b1-4)GlcNAc(b1-3)Gal(b1-4)GlcNAc(b1-3)Gal(b1-4)GlcNAc(b1-3)Gal(b1-4)GlcNAc(b1-6)]Man(a1-6)[Gal(b1-4)GlcNAc(b1-3)Gal(b1-4)GlcNAc(b1-3)Gal(b1-4)GlcNAc(b1-3)Gal(b1-4)GlcNAc(b1-3)Gal(b1-4)GlcNAc(b1-2)Man(a1-3)]Man(b1-4)GlcNAc(b1-4)[Fuc(a1-6)]GlcNAc
# Method in brief: as §1
# [14] = biological target: Gal(b1-4)GlcNAc(b1-3)Gal(b1-4)GlcNAc(b1-3)Gal(b1-4)GlcNAc(b1-3)Gal(b1-4)GlcNAc(b1-3)Gal(b1-4)GlcNAc(b1-3)Gal(b1-4)GlcNAc(b1-2)Man(a1-3)[Gal(b1-4)GlcNAc(b1-3)Gal(b1-4)GlcNAc(b1-3)Gal(b1-4)GlcNAc(b1-3)Gal(b1-4)GlcNAc(b1-3)Gal(b1-4)GlcNAc(b1-3)Gal(b1-4)GlcNAc(b1-2)Man(a1-6)]Man(b1-4)GlcNAc(b1-4)GlcNAc
# Method in brief: as §1
# [15] = biological target: Gal(b1-4)GlcNAc(b1-3)Gal(b1-4)GlcNAc(b1-3)GalNAc
# Method in brief: as §1
# [16] = biological target: Gal(b1-4)GlcNAc(b1-3)Gal(b1-4)GlcNAc(b1-3)[Gal(b1-4)GlcNAc(b1-3)Gal(b1-4)GlcNAc(b1-6)]GalNAc
# Method in brief: as §1
# [17] = biological target: Gal(b1-4)GlcNAc(b1-3)Gal(b1-4)GlcNAc(b1-6)[Gal(b1-3)]GalNAc
# Method in brief: as §1
# [18] = biological target: Gal(b1-4)GlcNAc(b1-3)Gal(b1-4)[Fuc(a1-3)]GlcNAc(b1-3)Gal(b1-4)[Fuc(a1-3)]GlcNAc
# Method in brief: as §1
# [19] = biological target: Gal(b1-4)GlcNAc(b1-3)GalNAc
# Method in brief: as §1
# [20] = biological target: Gal(b1-4)GlcNAc(b1-3)[Fuc(a1-3)GlcNAc(b1-6)]Gal(b1-4)Glc
# Method in brief: as §1
# [21] = biological target: Gal(b1-4)GlcNAc(b1-3)[Gal(b1-4)GlcNAc(b1-6)]Gal(b1-4)GlcNAc
# Method in brief: as §1
# [22] = biological target: Gal(b1-4)GlcNAc(b1-3)[GlcNAc(b1-6)]Gal(b1-4)GlcNAc
# Method in brief: as §1
# [23] = biological target: Gal(b1-4)GlcNAc(b1-6)Gal(b1-4)GlcNAc
# Method in brief: as §1
# [24] = biological target: Gal(b1-4)GlcNAc(b1-6)GalNAc
# Method in brief: as §1
# [25] = biological target: Gal(b1-4)GlcNAc(b1-6)[Gal(b1-3)]GalNAc
# Method in brief: as §1
# [26] = biological target: Gal(b1-4)GlcNAc(b1-6)[Gal(b1-4)GlcNAc(b1-3)]GalNAc
# Method in brief: as §1
# Gal(b1-4)GlcNAc6P = biological target: Gal(b1-4)GlcNAc6P
# Method in brief: as §1
# Gal(b1-6)Gal = biological target: Gal(b1-6)Gal
# Method in brief: as §1
# Gal3S(b1-3)GalNAc = biological target: Gal3S(b1-3)GalNAc
# Method in brief: as §1
# Gal3S(b1-3)GlcNAc = biological target: Gal3S(b1-3)GlcNAc
# Method in brief: as §1
binder,measurement,setting,value
B1,glycan array binding signal (z-score),[1],-0.119
same,glycan array binding signal (z-score),[2],0.121
same,glycan array binding signal (z-score),[3],-0.462
same,glycan array binding signal (z-score),[4],-0.424
same,glycan array binding signal (z-score),[5],-0.024
same,glycan array binding signal (z-score),[6],-0.322
same,glycan array binding signal (z-score),[7],-0.468
same,glycan array binding signal (z-score),[8],-0.471
same,glycan array binding signal (z-score),[9],-0.201
same,glycan array binding signal (z-score),[10],-0.406
same,glycan array binding signal (z-score),[11],-0.491
same,glycan array binding signal (z-score),[12],2.03
same,glycan array binding signal (z-score),[13],-0.265
same,glycan array binding signal (z-score),[14],-0.476
same,glycan array binding signal (z-score),[15],0.072
same,glycan array binding signal (z-score),[16],-0.245
same,glycan array binding signal (z-score),[17],0.615
same,glycan array binding signal (z-score),[18],-0.36
same,glycan array binding signal (z-score),[19],-0.418
same,glycan array binding signal (z-score),[20],-0.197
same,glycan array binding signal (z-score),[21],-0.56
same,glycan array binding signal (z-score),[22],0.31
same,glycan array binding signal (z-score),[23],-0.297
same,glycan array binding signal (z-score),[24],-0.428
same,glycan array binding signal (z-score),[25],-0.345
same,glycan array binding signal (z-score),[26],-0.266
same,glycan array binding signal (z-score),Gal(b1-4)GlcNAc6P,-0.219
same,glycan array binding signal (z-score),Gal(b1-6)Gal,-0.369
same,glycan array binding signal (z-score),Gal3S(b1-3)GalNAc,-0.48
same,glycan array binding signal (z-score),Gal3S(b1-3)GlcNAc,-0.339
